Each structure is given as a SMILES string.

The assay concerns the target CtermHisTag-mEGFR Triple Mutant (R797S, L858R, T790M) (Homo sapiens, UniProt P00533, C797S/L858R/T790M). Description: TR-FRET probe displacement, EGFR triple mutant. The note with it: 1.25 nM EGFR, 100 nM probe, 30 mins room temperature. For orientation: TR-FRET usually uses a lanthanide donor and a delayed reading to cut background.
In turn, `C#Cc1cc(=O)n(C)c2nc(Nc3ccc(N(C)CCN(C)C)cc3)ncc12` [Example 43, 2-[(4-{[2-(Dimethylamino)ethyl](methyl)amino}phenyl)amino]-5-ethynyl-8-methylpyrido[2,3-d]pyrimidin-7-one] displayed an IC50 of 20 to 100 nM.

`C#Cc1cc(=O)n(C)c2nc(Nc3cc(-c4cnn(C)c4)c(N4CCOCC4)cc3OC)ncc12` [Example 44, 5-Ethynyl-2-{[2-methoxy-5-(1-methylpyrazol-4-yl)-4-(morpholin-4-yl)phenyl]amino}-8-methylpyrido[2,3-d]pyrimidin-7-one] showed an IC50 of 20 to 100 nM.

For the compound `C#Cc1cc(=O)n(C)c2nc(Nc3ccc(N4CCN(C)CC4)cc3)ncc12` [Example 45, 5-Ethynyl-8-methyl-2-{[4-(4-methylpiperazin-1-yl)phenyl]amino}pyrido[2,3-d]pyrimidin-7-one], the IC50 was 20 to 100 nM.

For `C#Cc1cc(=O)n(C)c2nc(Nc3ccc(OCCN(C)C)cc3)ncc12` [Example 46, 2-({4-[2-(Dimethylamino)ethoxy]phenyl}amino)-5-ethynyl-8-methylpyrido[2,3-d]pyrimidin-7-one], the IC50 was in the range of 20 to 100 nM.

Compound `C#Cc1cc(=O)n(C)c2nc(Nc3ccc(N(C)CCN(C)C)c(-c4cnn(C)c4)c3)ncc12` [Example 47, 2-[(4-{[2-(Dimethylamino)ethyl](methyl)amino}-3-(1-methylpyrazol-4-yl)phenyl)amino]-5-ethynyl-8-methylpyrido[2,3-d]pyrimidin-7-one] displayed an IC50 of 20 to 100 nM.

On to `C#Cc1cc(=O)n(C)c2nc(Nc3ccccc3OC)ncc12` [Example 48, 5-Ethynyl-2-[(2-methoxyphenyl)amino]-8-methylpyrido[2,3-d]pyrimidin-7-one], for which the IC50 lay in the range of 100 to 1000 nM.

In the case of `C#Cc1cc(=O)n(C)c2nc(Nc3ccc(N4CCN(C)CC4)cc3OC)ncc12` [Example 49, 5-Ethynyl-2-{[2-methoxy-4-(4-methylpiperazin-1-yl)phenyl]amino}-8-methylpyrido[2,3-d]pyrimidin-7-one], the 50% inhibitory concentration (IC50) was in the range of 20 to 100 nM.

For the compound `C#Cc1cc(=O)n(C)c2nc(Nc3ccc(N4CCN(C)CC4)c(NC(C)=O)c3)ncc12` [Example 50, N-[5-({5-Ethynyl-8-methyl-7-oxopyrido[2,3-d]pyrimidin-2-yl}amino)-2-(4-methylpiperazin-1-yl)phenyl]acetamide], the 50% inhibitory concentration (IC50) was in the range of 20 to 100 nM.

On to `C#Cc1cc(=O)n(C)c2nc(Nc3ccc(N4CCN(C)CC4)c(NC(=O)CC)c3)ncc12` [Example 51, N-[5-({5-Ethynyl-8-methyl-7-oxopyrido[2,3-d]pyrimidin-2-yl}amino)-2-(4-methylpiperazin-1-yl)phenyl]propanamide], for which the IC50 is under 20 nM.

Compound `C#Cc1cc(=O)n(C)c2nc(Nc3cccc(N(C)CCN(C)C)c3)ncc12` [Example 52, 2-[(3-{[2-(Dimethylamino)ethyl](methyl)amino}phenyl)amino]-5-ethynyl-8-methylpyrido[2,3-d]pyrimidin-7-one] showed an IC50 of 20 to 100 nM.

On to `C#Cc1cc(=O)n(C)c2nc(Nc3cccc(N(C)C(=O)CN(C)C)c3)ncc12` [Example 53, 2-(Dimethylamino)-N-[3-({5-ethynyl-8-methyl-7-oxopyrido[2,3-d]pyrimidin-2-yl}amino)phenyl]-N-methylacetamide], for which the IC50 fell in the range of 20 to 100 nM.

Turning to `C#Cc1cc(=O)n(-c2cccc([N+](=O)[O-])c2)c2nc(Nc3ccccc3OC)ncc12` [Example 54, 5-Ethynyl-2-((2-methoxyphenyl)amino)-8-(3-nitrophenyl)pyrido[2,3-d]pyrimidin-7(8H)-one], the half-inhibitory concentration (IC50) was in the range of 100 to 1000 nM.

Turning to `C#Cc1cc(=O)n(-c2cccc(N)c2)c2nc(Nc3ccccc3OC)ncc12` [Example 55, 8-(3-Aminophenyl)-5-ethynyl-2-((2-methoxyphenyl)amino)pyrido[2,3-d]pyrimidin-7(8H)-one], the IC50 fell in the range of 20 to 100 nM.

`C#Cc1cc(=O)n(-c2cccc(NC(C)=O)c2)c2nc(Nc3ccccc3OC)ncc12` [Example 56, N-(3-(5-Ethynyl-2-((2-methoxyphenyl)amino)-7-oxopyrido[2,3-d]pyrimidin-8(7H)-yl)phenyl)acetamide] showed an IC50 of 20 to 100 nM.

In the case of `C#Cc1cc(=O)n(-c2cccc(NS(C)(=O)=O)c2)c2nc(Nc3ccccc3OC)ncc12` [Example 57, N-(3-(5-Ethynyl-2-((2-methoxyphenyl)amino)-7-oxopyrido[2,3-d]pyrimidin-8(7H)-yl)phenyl)methanesulfonamide], the IC50 lay in the range of 20 to 100 nM.

`C#Cc1cc(=O)n(-c2cccc(NS(=O)(=O)C3CC3)c2)c2nc(Nc3ccccc3OC)ncc12` [Example 58, N-(3-(5-Ethynyl-2-((2-methoxyphenyl)amino)-7-oxopyrido[2,3-d]pyrimidin-8(7H)-yl)phenyl)cyclopropanesulfonamide]: the IC50 was in the range of 100 to 1000 nM.

Turning to `C#Cc1cc(=O)n(-c2cccc(NC(=O)COC(C)=O)c2)c2nc(Nc3ccccc3OC)ncc12` [Example 59, 2-((3-(5-Ethynyl-2-((2-methoxyphenyl)amino)-7-oxopyrido[2,3-d]pyrimidin-8(7H)-yl)phenyl)amino)-2-oxoethyl acetate], the IC50 was in the range of 20 to 100 nM.

In the case of `C#Cc1cc(=O)n(-c2ccc([N+](=O)[O-])cc2)c2nc(Nc3ccccc3OC)ncc12` [Example 60, 5-Ethynyl-2-((2-methoxyphenyl)amino)-8-(4-nitrophenyl)pyrido[2,3-d]pyrimidin-7(8H)-one], the half-inhibitory concentration (IC50) was in the range of 100 to 1000 nM.

For `C#Cc1cc(=O)n(-c2ccc(N)cc2)c2nc(Nc3ccccc3OC)ncc12` [Example 61, 8-(4-Aminophenyl)-5-ethynyl-2-((2-methoxyphenyl)amino)pyrido[2,3-d]pyrimidin-7(8H)-one], the IC50 fell in the range of 20 to 100 nM.

Compound `C#Cc1cc(=O)n(-c2ccc(NC(C)=O)cc2)c2nc(Nc3ccccc3OC)ncc12` [Example 62, N-(4-(5-Ethynyl-2-((2-methoxyphenyl)amino)-7-oxopyrido[2,3-d]pyrimidin-8(7H)-yl)phenyl)acetamide] came in with an IC50 of 20 to 100 nM.

Take `C#Cc1cc(=O)n(-c2ccc(NS(C)(=O)=O)cc2)c2nc(Nc3ccccc3OC)ncc12` [Example 63, N-(4-(5-Ethynyl-2-((2-methoxyphenyl)amino)-7-oxopyrido[2,3-d]pyrimidin-7(8H)-yl)phenyl)methanesulfonamide]: the IC50 was 20 to 100 nM.

In turn, `C#Cc1cc(=O)n(-c2ccc(NC(=O)COC(C)=O)cc2)c2nc(Nc3ccccc3OC)ncc12` [Example 64, 2-((4-(5-Ethynyl-2-((2-methoxyphenyl)amino)-7-oxopyrido[2,3-d]pyrimidin-8(7H)-yl)phenyl)amino)-2-oxoethyl acetate] yielded an IC50 of 20 to 100 nM.

Regarding `C#Cc1cc(=O)n(-c2ccc(NC(=O)CC)cc2)c2nc(Nc3ccccc3OC)ncc12` [Example 65, N-(4-(5-Ethynyl-2-((2-methoxyphenyl)amino)-7-oxopyrido[2,3-d]pyrimidin-7(8H)-yl)phenyl)propionamide], the IC50 fell in the range of 20 to 100 nM.

Take `C#Cc1cc(=O)n(-c2ccc(NC(=O)C3CC3)cc2)c2nc(Nc3ccccc3OC)ncc12` [Example 66, N-(4-(5-Ethynyl-2-((2-methoxyphenyl)amino)-7-oxopyrido[2,3-d]pyrimidin-8(7H)-yl)phenyl)cyclopropanecarboxamide]: the IC50 was in the range of 20 to 100 nM.

In the case of `C#Cc1cc(=O)n(CC2CCCC2)c2nc(Nc3ccc(N4CCN(C)CC4)cc3)ncc12` [Example 67, 8-(Cyclopentylmethyl)-5-ethynyl-2-((4-(4-methylpiperazin-1-yl)phenyl)amino)pyrido[2,3-d]pyrimidin-7(8H)-one], the concentration for half-maximal inhibition (IC50) is under 20 nM.

Compound `C#Cc1cc(=O)n(C2CCCCC2)c2nc(Nc3ccc(N4CCN(C)CC4)cc3)ncc12` [Example 68, 8-Cyclohexyl-5-ethynyl-2-((4-(4-methylpiperazin-1-yl)phenyl)amino)pyrido[2,3-d]pyrimidin-7(8H)-one] yielded a concentration for half-maximal inhibition (IC50) of under 20 nM.

`C#Cc1cc(=O)n(C2CCOCC2)c2nc(Nc3ccc(N4CCN(C)CC4)cc3)ncc12` [Example 69, 5-Ethynyl-2-((4-(4-methylpiperazin-1-yl)phenyl)amino)-8-(tetrahydro-2H-pyran-4-yl)pyrido[2,3-d]pyrimidin-7(8H)-one] showed an IC50 of under 20 nM.

The compound `C#Cc1cc(=O)n(CC2CCOC2)c2nc(Nc3ccc(N4CCN(C)CC4)cc3)ncc12` (stereo not shown) [Example 70, 5-Ethynyl-2-((4-(4-methylpiperazin-1-yl)phenyl)amino)-8-((tetrahydrofuran-3-yl)methyl)pyrido[2,3-d]pyrimidin-7(8H)-one] had a concentration for half-maximal inhibition (IC50) of under 20 nM.

In turn, `C#Cc1cc(=O)n(C[C@@H]2CCC(=O)N2)c2nc(Nc3ccc(N4CCN(C)CC4)cc3)ncc12` [Example 71, (S)-5-Ethynyl-2-((4-(4-methylpiperazin-1-yl)phenyl)amino)-8-((5-oxopyrrolidin-2-yl)methyl)pyrido[2,3-d]pyrimidin-7(8H)-one] gave an IC50 of 100 to 1000 nM.

`C#Cc1cc(=O)n(CC2CCCO2)c2nc(Nc3ccc(N4CCN(C)CC4)cc3)ncc12` (stereo not shown) [Example 72, 5-Ethynyl-2-((4-(4-methylpiperazin-1-yl)phenyl)amino)-8-((tetrahydrofuran-2-yl)methyl)pyrido[2,3-d]pyrimidin-7(8H)-one] came in with an IC50 of 20 to 100 nM.

With `C#Cc1cc(=O)n(C2CCCC2O)c2nc(Nc3ccc(N4CCN(C)CC4)cc3)ncc12` (stereo not shown) [Example 73, 5-Ethynyl-8-(2-hydroxycyclopentyl)-2-((4-(4-methylpiperazin-1-yl)phenyl)amino)pyrido[2,3-d]pyrimidin-7(8H)-one], the half-maximal inhibitory concentration (IC50) is 20 to 100 nM.

For `C#Cc1cc(=O)n(C2CCCC2)c2nc(Nc3ccccc3OC)ncc12` [Example 74, 8-Cyclopentyl-5-ethynyl-2-((2-methoxyphenyl)amino)pyrido[2,3-d]pyrimidin-7(8H)-one], the IC50 lay in the range of 100 to 1000 nM.

Compound `C#Cc1cc(=O)n(-c2ccc(OC)cc2OC)c2nc(Nc3ccccc3OC)ncc12` [Example 75, 8-(2,4-Dimethoxyphenyl)-5-ethynyl-2-[(2-methoxyphenyl)amino]pyrido[2,3-d]pyrimidin-7-one] displayed an IC50 of under 20 nM.

In turn, `C#Cc1cc(=O)n(C(C)C)c2nc(Nc3ccc(N4CCN(C)CC4)cc3)ncc12` [Example 76, 5-Ethynyl-8-isopropyl-2-{[4-(4-methylpiperazin-1-yl)phenyl]amino}pyrido[2,3-d]pyrimidin-7-one] came in with an IC50 of 20 to 100 nM.

What is called IC50 is the concentration needed to halve the response being measured. A lower IC50 goes with greater potency in that assay.

The values are drawn from patent publication US20260137703A1, “2-AMINO-PYRIDO[2,3-D]PYRIMIDIN-7(8H)-ONE AND 7-AMINO-1-PYRIMIDO[4,5-D]PYRIMIDIN-2(1 H)-ONE DERIVATIVES AS EGFR INHIBITORS FOR THE TREATMENT OF CANCER” (Cancer Research Technology Limited, priority 2022, published 2026).
